Consider 32 sequences from the supplement of paper PMC12645437, “Orthogonal IMiD-Degron Pairs Induce Selective Protein Degradation in Cells” (ACS Chemical Biology, 2025).

Some of the results follow.
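Also: jurkat cells carrying a lentiviral library of mutant zinc finger degrons fused to EGFP plus mCherry, mCherry+ cells FACS sorted, degron abundance counted by next-generation sequencing.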

The test has as its target no compound (DMSO). Nature of the test: log2 fold change of degron read counts, EGFP-low vs EGFP+ sorted cells; higher = lower degron-EGFP level without compound (poor expression or instability). The note with it: compound: DMSO control; 18 h.
Take FFCPQCGALFTQKGNLLRHIKL: the “log2 fold change of degron read counts” value came out at 0.458. Consider FLCSVCGHVFTQKGNLLRHIKL, for which the “log2 fold change of degron read counts” value stood at 0.0947. On to FTCNVCGALFTQKGNLLRHIKL, for which the “log2 fold change of degron read counts” value is -0.625. To LNCEICGFLCTQKGNLLRHIKL belongs 1.12. To FNCEQCGALFTQKGNLLRHIKL belongs -2.47; to FNCPICGHNFTQKGNLLRHIKL, -1.56. As for FKCDICGADFTQKGNLLRHIKL, the “log2 fold change of degron read counts” value was -2.77. To FGCPICGANFTQKGNLLRHIKL belongs -0.393; to LICPICGFQCTQKGNLLRHIKL, 0.371.

Turning to FGCNICGAHFTQKGNLLRHIKL, the “log2 fold change of degron read counts” value amounted to 0.191. To FTCEICGRRFTQKGNLLRHIKL belongs -1.08; to FHCNQCGHYFTQKGNLLRHIKL, 0.119; to FGCDICGAEFTQKGNLLRHIKL, -1.39. Next, FVCPICGHLFTQKGNLLRHIKL: -0.281. To FICNQCGHNFTQKGNLLRHIKL belongs -0.231; to FVCPICGAPFTQKGNLLRHIKL, 0.489. For FDCNVCGAFFTQKGNLLRHIKL, the “log2 fold change of degron read counts” value came out at 0.442. To FCCPQCGAKFTQKGNLLRHIKL belongs -1.57.

Regarding FACPQCGAPFTQKGNLLRHIKL, the “log2 fold change of degron read counts” value is -1.26. To FICPICGAWFTQKGNLLRHIKL belongs 0.436.

In the case of FACEICGAHFTQKGNLLRHIKL, the “log2 fold change of degron read counts” value is -2.44. Regarding FSCEICGAPFTQKGNLLRHIKL, the “log2 fold change of degron read counts” value was -0.51. To LECNQCGFGCTQKGNLLRHIKL belongs -0.168.

Take FICEVCGAMFTQKGNLLRHIKL: the “log2 fold change of degron read counts” value is -2.5.

For LDCNQCGFICTQKGNLLRHIKL, the “log2 fold change of degron read counts” value was 1.6. Next, FKCPVCGADFTQKGNLLRHIKL: -0.275; FWCNICGANFTQKGNLLRHIKL: -0.00785.

As for FWCPVCGARFTQKGNLLRHIKL, the “log2 fold change of degron read counts” value worked out at 0.509. To FICNICGAIFTQKGNLLRHIKL belongs 0.244; to LMCEICGFGCTQKGNLLRHIKL, 0.236; to FMCNQCGAHFTQKGNLLRHIKL, -0.689. Consider FVCPICGRRFTQKGNLLRHIKL, for which the “log2 fold change of degron read counts” value was -0.564.
